Experimental data reported in patent US4952607A, “Copper complex for treating cancer” (priority 1986, dated 1990).
Where two headings read alike, the source gives them in different places.

Key:
[1] = tested on: Ehrlich carcinoma cells; details: for effective dose: intramuscular; for mice surviving beyond the time at which all control mice died: 58th day after implantation; for Mean Survival Time: ± standard error, p less than 0.0001
[2] = tested on: Ehrlich carcinoma cells; details: cited from earlier work
[3] = tested on: Ehrlich carcinoma cells; experiment: Preliminary experiments in Swiss mice implanted with Ehrlich carcinoma cells; type: in vivo
[4] = CuDIPS × 10 (Daily, days 0-4 and 35-39)

O=C(O)c1ccccc1[O-].O=C(O)c1ccccc1[O-].[Cu+2] [CuS, Cu(II)(salicylate)2]
tumor growth ([1]; Charts V and VI): dramatically reduced tumor growth | effective dose [1]: 25 mg/kg

O=S(=O)([O-])[O-].[Cu+2] [CuSO4, copper sulfate, reference compound]
cause of death ([1]; CuSO4 0.5 mg, 5 days): death is caused by massive lung metastasis | antitumor activity ([1]; CuSO4 or DIPS alone): no antitumor activity | antitumor effect ([2]; Ehrlich tumor model): no antitumor effect

CC(C)c1cc(C(=O)[O-])c(O)c(C(C)C)c1.CC(C)c1cc(C(=O)[O-])c(O)c(C(C)C)c1.[Cu+2] [CuDIPS, Cu(II) (3,5-diisopropylsalicylate)2]
mean survival vs other CuDIPS groups ([1]; 0.5 mg MWF, 10 doses): showed a greater increase in mean survival | mice with regressed tumors ([1]; 0.5 mg MWF, 10 doses, out of 24 mice, tumors recurred by 90 days): two of them had regressed tumors | lung nodules on 45th day ([1]; 5 daily doses of CuDIPS, killed on 45th day after transplantation): only microscopic nodules were observed in the lungs | mice surviving beyond the time at which all control mice died [1]: 45% | tumor growth ([1]; 5 days, p less than 0.001): difference in tumor growth | animals surviving for 48 days ([1]; 48 days): More than 90% | efficacy in reducing tumor growth among complexes of Chart IX ([1]; Chart IX): most effective in reducing tumor growth | survival of the host organisms ([1]; Charts V and VI): prolonged survival of the host organisms | tumor growth ([1]; Charts V and VI): dramatically reduced tumor growth | time until microscopic lung metastasis observed ([1]; CuDIPS treated mice, control as early as 10 days): ≥ 45 days | Maximum Survival Time ([1]; CuDIPS × 5 (Daily)): 68 days | Median Survival Time ([1]; CuDIPS × 5 (Daily)): 52 days | Mean Survival Time ([1]; CuDIPS × 5 (Daily)): 54 ± 3 days | Maximum Survival Time ([1]; CuDIPS × 10 (Daily)): 87 days | Median Survival Time ([1]; CuDIPS × 10 (Daily)): 55 days | Mean Survival Time ([1]; CuDIPS × 10 (Daily)): 58 ± 5 days | Maximum Survival Time [1, 4]: > 124 days | Median Survival Time [1, 4]: 59 days | Mean Survival Time [1, 4]: 58 ± 4 days | Maximum Survival Time ([1]; CuDIPS × 10 (MWF)): 124 days | Median Survival Time ([1]; CuDIPS × 10 (MWF)): 62 days | Mean Survival Time ([1]; CuDIPS × 10 (MWF)): 61 ± 6 days | Maximum Survival Time ([1]; CuDIPS × 18 (MWF × 6)): 79 days | Median Survival Time ([1]; CuDIPS × 18 (MWF × 6)): 49 days | Mean Survival Time ([1]; CuDIPS × 18 (MWF × 6)): 50 ± 4 days | effect on metastasis ([1]; CuDIPS, 5 daily doses): delayed the process of metastasis | effective dose [1]: 25 mg/kg | animals surviving for over 98 days ([2]; CuDIPS every day for 10 days, over 98 days): 10%

Orgotein: generic name for CuZnSOD derived from bovine liver
response of Ehrlich carcinoma to treatment ([1]; CBA mice, day of implantation or 5 or 10 consecutive days, listed as SOD): no effect against this solid Ehrlich tumor | effect on growth of tumor cells ([1]; any of the models studied): does not have a large effect on the growth of tumor cells | reduction in tumor size [3]: a reduction in tumor size occurs

CC(=O)Oc1ccccc1C(=O)[O-].CC(=O)Oc1ccccc1C(=O)[O-].CC(=O)Oc1ccccc1C(=O)[O-].CC(=O)Oc1ccccc1C(=O)[O-].[Cu+2].[Cu+2] [Cu(II)2 (aspirinate)4]
tumor growth ([1]; Charts VII and VIII): reduces tumor growth | effective dose [1]: 50 mg/kg | activity compared with SOD ([1]; solid Ehrlich tumor): more active than SOD

CC(C)(C)c1cc(C(=O)[O-])c(O)c(C(C)(C)C)c1.CC(C)(C)c1cc(C(=O)[O-])c(O)c(C(C)(C)C)c1.[Cu+2] [CuDTBS, Cu(II)(3,5-ditertiarybutylsalicylate)2]
mice surviving beyond the time at which all control mice died [1]: 25% | survival of the host organisms ([1]; Charts V and VI): prolonged survival of the host organisms | tumor growth ([1]; Charts V and VI): dramatically reduced tumor growth | period for 100% survival ([1]; CuDTBS-treated group): 44 days | period for 100% survival vs controls ([1]; CuDTBS-treated group): ten times longer
